In the supplement of paper PMC3334620:
The full ranking holds about 33,000 sequences; the median of “E-score (-0.5 to 0.5)” is about -0.021, and the highest 2% start at about 0.32. The list shows a part of the results.

Biological target: T1, Zap1 (UniProt P47043)
T1 sequence: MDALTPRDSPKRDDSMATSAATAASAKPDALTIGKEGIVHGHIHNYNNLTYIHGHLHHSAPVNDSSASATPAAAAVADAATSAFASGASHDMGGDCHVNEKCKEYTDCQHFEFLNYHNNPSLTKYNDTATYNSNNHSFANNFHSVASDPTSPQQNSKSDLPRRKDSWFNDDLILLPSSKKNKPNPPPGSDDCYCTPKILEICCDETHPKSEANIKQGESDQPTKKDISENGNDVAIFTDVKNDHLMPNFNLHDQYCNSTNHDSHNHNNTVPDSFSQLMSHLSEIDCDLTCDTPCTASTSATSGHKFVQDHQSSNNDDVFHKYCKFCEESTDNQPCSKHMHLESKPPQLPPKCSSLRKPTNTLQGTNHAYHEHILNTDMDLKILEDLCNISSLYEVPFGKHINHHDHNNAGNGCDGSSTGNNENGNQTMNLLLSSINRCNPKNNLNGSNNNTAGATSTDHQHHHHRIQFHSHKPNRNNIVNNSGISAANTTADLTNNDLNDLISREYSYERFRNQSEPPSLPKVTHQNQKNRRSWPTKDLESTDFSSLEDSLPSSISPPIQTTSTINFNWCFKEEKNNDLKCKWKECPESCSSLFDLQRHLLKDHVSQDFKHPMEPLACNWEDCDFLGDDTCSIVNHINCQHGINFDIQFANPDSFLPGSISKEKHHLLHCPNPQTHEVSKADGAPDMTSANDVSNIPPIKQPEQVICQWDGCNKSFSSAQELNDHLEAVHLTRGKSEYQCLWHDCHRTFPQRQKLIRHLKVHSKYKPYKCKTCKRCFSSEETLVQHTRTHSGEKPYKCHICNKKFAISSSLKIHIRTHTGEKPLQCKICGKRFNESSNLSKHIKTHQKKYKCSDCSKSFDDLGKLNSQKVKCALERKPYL
Experiment: PBM E-score (8-mer binding enrichment) (E-score (-0.5 to 0.5)); higher = stronger / more preferred TF binding; most listed sequences are background and not binding sites
Details: protein concentration: 200 nM; construct: GST-full length
Experimental: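 Universal 'all 10-mer' protein binding microarrays (Agilent AMADID 015681) probed with GST-tagged S. cerevisiae TFs (full-length or DBD) made by in vitro transcription/translation (PURExpress), about 100-200 nM. Bound TF was detected with fluorescent anti-GST. Each ungapped 8-mer (which stands for itself and its reverse complement) is scored by the PBM enrichment score (E-score), a modified Wilcoxon-Mann-Whitney statistic from -0.5 to +0.5, computed with the Universal PBM Analysis Suite. Scale: above 0.35 generally sequence-specific binding.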

| Sequence | PBM E-score |
| --- | --- |
| ACCGTAGC | -0.102 |
| CGTCAACC | -0.0189 |
| GATATTTA | 0.089 |
| TAGTTGCA | 0.116 |
| CCACGACA | -0.1 |
| CAGGGAGG | -0.24 |
| ACGCTGGA | -0.218 |
| CTGTTATC | 0.0763 |
| AAACGTCA | -0.153 |
| GGTGGGCA | -0.0358 |
| CCACTACG | 0.00089 |
| GAGACAGA | -0.113 |
| ATTCGGTC | -0.00249 |
| CAACGCGA | 0.00035 |
| ACCGCGCA | 0.19 |
| GAACGAGA | -0.227 |
| GTTGGCCA | -0.015 |
| ACGGACGC | -0.169 |
| CCGGCGCG | 0.0165 |
| ATCATCAG | -0.0715 |
| TATGTAAA | 0.2 |
| AGTATCAA | 0.0988 |
| CCGCTTCG | -0.153 |
| AACAAGCA | -0.00089 |
| CGGTTGGA | -0.226 |

| Sequence | PBM E-score |
| --- | --- |
| ATTGCAGG | 0.0374 |
| AGATGGTG | -0.0964 |
| ATTGAAAT | 0.127 |
| TTTACAAA | 0.151 |
| ACATAACG | 0.0512 |
| CCTTTATA | 0.128 |
| CCCCGTGC | -0.114 |
| TACGACAA | 0.0958 |
| CGCGTACC | -0.0155 |
| AGAAGATG | 0.0389 |
| ACAGGTAT | 0.112 |
| ACCACTCC | 0.158 |
| CTACAGTC | -0.0915 |
| GTGCGAAC | -0.219 |
| AGCCTTTA | 0.132 |
| ATCGCGGA | -0.0629 |
| AGATCCGG | -0.0775 |
| CCATGTTC | -0.192 |
| GACGCGAA | -0.12 |
| AAAAGAAT | -0.00144 |
| ACGCACGT | -0.142 |
| ACGATAGA | -0.0715 |
| CTGCAGTA | -0.22 |
| TCTAAAAA | 0.168 |
| ACCTTTTC | 0.254 |

| Sequence | PBM E-score |
| --- | --- |
| CCCGCCGC | 0.202 |
| TGAAAGAA | 0.158 |
| GTTTGACA | -0.0724 |
| AAGGGGAG | -0.298 |
| CGGGTAGA | 0.133 |
| CATCACCA | 0.246 |
| ATTTGCGA | 0.0692 |
| CCTCCACG | 0.0201 |
| CTACCGAC | -0.0369 |
| ATTTTGAC | 0.203 |
| GCCCAGCC | -0.197 |
| AAAACGGT | 0.109 |
| GACTATAA | 0.139 |
| ACTGATCC | -0.136 |
| AACCACCC | 0.353 |
| GCAAAACC | 0.0439 |
| AAACAAAT | 0.179 |
| CTGAAACC | 0.268 |
| CAATTACG | -0.0184 |
| AATCACAG | -0.0415 |
| CCCTAGAA | 0.177 |
| ACACGTAT | -0.0502 |
| CAGAACGG | -0.0637 |
| CGTCCCGA | -0.14 |
| CGAAATTC | -0.0272 |

| Sequence | PBM E-score |
| --- | --- |
| AAGTACCT | 0.213 |
| ATGCTGGC | -0.157 |
| ACGATCAC | 0.116 |
| AATAGCCC | -0.0444 |
| ATTGGTTA | 0.402 |
| CGGAAATA | 0.104 |
| AACTGCTT | -0.148 |
| TACGCGGA | -0.102 |
| ACGCCGCG | 0.0461 |
| AGAATGTA | 0.0274 |
| GGTTGCAA | 0.301 |
| CCCGAACA | -0.0104 |
| GAGGATAA | -0.0105 |
| ACTGAACA | 0.133 |
| AGGGCTGA | -0.15 |
| TACACATA | -0.0262 |
| AGGTAGCG | 0.232 |
| GCATATGC | -0.213 |
| ACGCCGGC | 0.18 |
| AGCAAGAG | -0.163 |
| AAGTAAAT | 0.211 |
| ATGGACAC | 0.201 |
| CTGCTTTC | -0.131 |
| AGGGCCGA | -0.13 |
| ACGCGGCA | -0.0868 |

| Sequence | PBM E-score |
| --- | --- |
| CGGTAGCA | 0.117 |
| CAGGATGC | -0.182 |
| AGCTGTGC | -0.254 |
| AAGCATGC | -0.137 |
| GAAAAGAA | 0.0406 |
| ATTTTCCC | -0.0341 |
| GGCACACC | -0.194 |
| CGACTAAG | -0.121 |
| GTATTTAA | 0.19 |
| TCTACGAA | -0.068 |
| TCTGCAGA | -0.155 |
| ATTTGATA | 0.0282 |
| AGCATACT | -0.237 |
| AGATCTAG | -0.26 |
| CCATACTA | 0.174 |
| CTCGTACC | -0.0636 |
| ACGTAAGG | -0.112 |
| GCCTCGAC | -0.0283 |
| ATACACCA | 0.114 |
| ATAGATAT | -0.0181 |
| ACAACCTG | 0.23 |
| AGTGTCGC | -0.0555 |
| AGTGGGAG | -0.312 |
| ATCGCAAA | -0.0123 |
| GAGCACTA | -0.227 |

| Sequence | PBM E-score |
| --- | --- |
| AGCGTTGG | -0.0819 |
| GCTGCCCA | -0.0561 |
| AAGATGGA | -0.202 |
| GCTAATCA | 0.00226 |
| CGAAGTCA | -0.104 |
| ATTCGCTC | -0.179 |
| TATTGCCA | -0.0876 |
| GCGCTGGA | -0.129 |
| ACAGCTCC | -0.18 |
| GATGTTCC | -0.0651 |
| AAATGTAG | 0.0123 |
| TACAATCA | -0.073 |
| ATTCGTAC | 0.0885 |
| AAGAGATA | -0.0556 |
| GATCGACA | 0.0122 |
| CGTGCTAA | -0.0305 |
| CCATTTGA | 0.0279 |
| ACCCTCCC | 0.339 |
| AATCTTGT | -0.0484 |
| GTCGCAGA | 0.0891 |
| TACTCCAA | 0.155 |
| CTTCAGTC | -0.0626 |
| TCTTCGCA | -0.158 |
| AACGAAGG | -0.266 |
| ACGTCAAC | -0.045 |

| Sequence | PBM E-score |
| --- | --- |
| GATCAGGC | -0.163 |
| ATTGAGTG | -0.015 |
| AGTCTAGA | -0.295 |
| TCCAAGGA | -0.119 |
| CCTTCAGC | -0.0407 |
| CCGCGGAG | -0.0389 |
| CAGACATA | -0.126 |
| ACTAGCGA | -0.0181 |
| AAACGGCA | -0.169 |
| ATACATCA | 0.00689 |
| GTCTTCAA | -0.0252 |
| GGGCTCAA | -0.0971 |
| CAGAGGTA | 0.177 |
| GATGCCGC | -0.212 |
| GGATCCAC | -0.133 |
| GGCGTAGA | -0.194 |
| CGAGCTCG | -0.067 |
| CTAACACC | -0.0752 |
| AATTCGCA | 0.0147 |
| GATCACGA | 0.0169 |
| CCCTACGG | 0.313 |
| CGCGTAGC | -0.304 |
| GACACTAC | 0.0501 |
| CTAGAATA | 0.12 |
| ATACTCGC | 0.0732 |

| Sequence | PBM E-score |
| --- | --- |
| GCAATGGA | -0.0524 |
| ACTACCGG | 0.0974 |
| AAACAAGT | 0.147 |
| CTGGGGCC | 0.0294 |
| AGCCCCGC | -0.0894 |
| AAGTGGCA | -0.0883 |
| GATGCCCC | -0.25 |
| CTGCCTCA | -0.201 |
| GATTAGCA | -0.0698 |
| ATTGACCA | 0.0962 |
| TCGCAACA | -0.0496 |
| CGCTAATA | -0.087 |
| GTTAAACA | 0.217 |
| GCACCCCC | -0.147 |
| ACCGGGTG | 0.168 |
| ACCTGACG | -0.0534 |
| ACCGTGAT | 0.185 |
| TGGTCACA | 0.231 |
| GGGGAACC | 0.0229 |
| AGCAACCT | 0.155 |
| CTGACCAA | 0.273 |
| AGCAGTAC | 0.0549 |
| ACCACGTC | -0.0734 |
| CTCTCGTA | -0.171 |
| ATGTTGAG | -0.102 |

| Sequence | PBM E-score |
| --- | --- |
| AACTTTGG | 0.0932 |
| ACCACATC | 0.2 |
| GCAATTCC | -0.147 |
| AACAGGTG | -0.135 |
| GGGGTACA | 0.249 |
| ACAATACC | 0.252 |
| CCTCAGAC | 0.0503 |
| CCAAATCG | -0.113 |
| ATATCTGC | -0.0972 |
| ACGATAAA | -0.04 |
| ACGTCCCT | -0.0863 |
| AGAGGCTG | -0.0528 |
| AAAGTAGG | -0.0759 |
| ACATGTAA | 0.153 |
| AACTCTCT | -0.00923 |
| GCCTTGGA | -0.11 |
| GTTGACTA | -0.0663 |
| ACTGCCCG | -0.227 |
| TAGGCCCA | -0.142 |
